According to paper PMC11255602 (Protein Science : A Publication of the Protein Society, 2024):
Several values for one entry are separate records, joined by “and”; a condition that tells them apart may be missing. Identical values can stand only once.

B1: wild type (WT) PRMT1 (His6-TEV-WT PRMT1, humanized) (enzyme)
chain: not shown

Tests used:
native gel or EMSA = target: the molecule itself; experiment: native gel or EMSA
[1] = target: the molecule itself; experiment: other fluorescence titration
[2] = target: B1; experiment: cross-linking

B1
stoichiometry N (native gel or EMSA): 4 and 2 | EC50 [1]: 17.9 ± 5 nM

B2: H293A PRMT1 (enzyme)
chain: not shown
stoichiometry N (native gel or EMSA): 4

B3: H421 peptide (Acetyl-…, biotin conjugated to C-terminal lysine) (peptide)
peptide: not shown
modifications: N-terminal acetyl; biotin conjugated to C-terminal lysine
binding result [2]: binds
